Experiment [1] deals with GST-pUL34_(1-252) (HSV1 (herpes simplex virus type 1)) (UniProt P10218). In words: pull-down; both purified.
Experiment [2] addresses pUL34_(1-168) (HSV1 (herpes simplex virus type 1)) (UniProt P10218). In words: two-hybrid.
For experiment [3], the target named is pUL34_(1-180) (HSV1 (herpes simplex virus type 1)) (UniProt P10218). Put plainly: two-hybrid.
Experiment [4] deals with pUL34_(1-203) (HSV1 (herpes simplex virus type 1)) (UniProt P10218). Put plainly: two-hybrid.
Experiment [5] addresses pUL34_(1-252) (HSV1 (herpes simplex virus type 1)) (UniProt P10218). Put plainly: two-hybrid.

The chains behind the UniProt entries cited, without tags or fusion partners. Where a name states a change or a piece, a line headed by the entry shows the natural chain unless it says otherwise. Residues count along the entry.
UniProt P10218: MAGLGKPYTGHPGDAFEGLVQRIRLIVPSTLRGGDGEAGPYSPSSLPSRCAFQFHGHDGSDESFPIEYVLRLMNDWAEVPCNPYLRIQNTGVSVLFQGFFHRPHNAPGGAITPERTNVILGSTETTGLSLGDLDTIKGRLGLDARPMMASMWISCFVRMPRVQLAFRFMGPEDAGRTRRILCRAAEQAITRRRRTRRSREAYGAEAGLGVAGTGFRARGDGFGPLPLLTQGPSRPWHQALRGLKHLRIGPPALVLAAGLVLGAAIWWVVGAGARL
pUL34_(1-252) (HSV1 (herpes simplex virus type 1)): residues 1-252 of P10218
pUL34_(1-203) (HSV1 (herpes simplex virus type 1)): residues 1-203 of P10218
pUL34_(1-180) (HSV1 (herpes simplex virus type 1)): residues 1-180 of P10218
pUL34_(1-168) (HSV1 (herpes simplex virus type 1)): residues 1-168 of P10218
UniProt Q14974: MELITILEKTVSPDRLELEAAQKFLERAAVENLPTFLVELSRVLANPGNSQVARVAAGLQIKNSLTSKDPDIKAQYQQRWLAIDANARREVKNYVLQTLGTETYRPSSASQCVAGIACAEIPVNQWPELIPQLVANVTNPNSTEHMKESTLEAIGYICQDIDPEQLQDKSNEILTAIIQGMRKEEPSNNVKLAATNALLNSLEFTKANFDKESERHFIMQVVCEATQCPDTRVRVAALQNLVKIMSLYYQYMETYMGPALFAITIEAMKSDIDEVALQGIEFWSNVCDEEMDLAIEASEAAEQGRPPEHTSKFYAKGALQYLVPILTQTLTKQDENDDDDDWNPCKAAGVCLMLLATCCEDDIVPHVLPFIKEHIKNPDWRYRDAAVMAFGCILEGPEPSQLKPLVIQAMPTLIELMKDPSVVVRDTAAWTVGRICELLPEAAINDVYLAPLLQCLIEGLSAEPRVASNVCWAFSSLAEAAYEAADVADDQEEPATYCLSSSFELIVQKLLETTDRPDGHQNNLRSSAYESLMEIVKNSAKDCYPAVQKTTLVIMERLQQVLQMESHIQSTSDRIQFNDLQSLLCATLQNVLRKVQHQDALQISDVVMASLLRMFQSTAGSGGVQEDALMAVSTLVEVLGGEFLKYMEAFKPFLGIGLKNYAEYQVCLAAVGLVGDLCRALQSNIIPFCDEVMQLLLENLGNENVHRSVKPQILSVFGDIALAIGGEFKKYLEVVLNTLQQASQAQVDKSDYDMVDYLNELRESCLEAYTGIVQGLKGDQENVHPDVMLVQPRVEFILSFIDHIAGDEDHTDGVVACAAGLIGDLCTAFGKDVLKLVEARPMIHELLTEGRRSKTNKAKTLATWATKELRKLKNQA
UniProt O15131: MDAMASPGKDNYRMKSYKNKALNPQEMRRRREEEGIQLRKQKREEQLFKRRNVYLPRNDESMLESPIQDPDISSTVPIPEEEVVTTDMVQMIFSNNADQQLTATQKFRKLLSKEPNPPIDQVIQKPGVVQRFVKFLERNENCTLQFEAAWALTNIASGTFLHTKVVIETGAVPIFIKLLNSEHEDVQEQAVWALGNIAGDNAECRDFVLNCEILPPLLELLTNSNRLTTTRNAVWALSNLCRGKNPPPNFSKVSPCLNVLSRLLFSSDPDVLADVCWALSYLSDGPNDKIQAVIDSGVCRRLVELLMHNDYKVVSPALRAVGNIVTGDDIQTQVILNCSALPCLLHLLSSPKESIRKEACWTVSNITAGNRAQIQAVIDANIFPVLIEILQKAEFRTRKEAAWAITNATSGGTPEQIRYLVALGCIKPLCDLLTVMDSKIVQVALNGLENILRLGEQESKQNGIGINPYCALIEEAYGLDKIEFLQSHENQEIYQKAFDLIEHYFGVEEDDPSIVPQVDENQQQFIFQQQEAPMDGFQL
UniProt O00629: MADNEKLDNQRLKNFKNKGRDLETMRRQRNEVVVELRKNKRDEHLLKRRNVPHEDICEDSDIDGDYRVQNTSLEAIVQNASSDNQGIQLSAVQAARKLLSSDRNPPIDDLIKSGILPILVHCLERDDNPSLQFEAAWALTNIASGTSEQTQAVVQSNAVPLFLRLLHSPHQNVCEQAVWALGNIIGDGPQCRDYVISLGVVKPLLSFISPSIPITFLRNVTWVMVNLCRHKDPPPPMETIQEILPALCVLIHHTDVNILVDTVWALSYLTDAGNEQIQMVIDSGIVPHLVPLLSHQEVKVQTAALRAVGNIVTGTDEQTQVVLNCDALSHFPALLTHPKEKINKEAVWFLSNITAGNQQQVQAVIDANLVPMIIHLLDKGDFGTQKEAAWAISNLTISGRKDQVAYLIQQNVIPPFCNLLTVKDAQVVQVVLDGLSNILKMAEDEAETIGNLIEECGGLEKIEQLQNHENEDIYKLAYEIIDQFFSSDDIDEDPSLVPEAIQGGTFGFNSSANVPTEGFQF
UniProt P10215: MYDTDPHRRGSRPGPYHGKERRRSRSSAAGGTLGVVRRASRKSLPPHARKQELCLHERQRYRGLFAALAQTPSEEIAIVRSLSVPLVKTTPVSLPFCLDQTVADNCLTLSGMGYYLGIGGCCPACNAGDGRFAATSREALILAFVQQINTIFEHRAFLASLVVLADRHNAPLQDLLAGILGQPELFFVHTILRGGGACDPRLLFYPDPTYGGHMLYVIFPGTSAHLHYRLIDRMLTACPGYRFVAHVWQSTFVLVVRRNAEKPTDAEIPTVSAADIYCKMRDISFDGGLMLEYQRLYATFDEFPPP

These are yes or no findings as the source states them, for the method shown. Some binding calls cover weakened binding; strength is not graded here.

Consider KPNB1-His6 (from UniProt Q14974 1-876), for which the binding entry in experiment [1] is listed as “binds”.

For the substance KPNA5-His6 (from UniProt O15131 1-539), the binding entry in experiment [1] is “binds”.

Consider “α importin KPNA5 (from UniProt O15131 1-539)”, for which the binding result is given as “no binding” in experiment [2], “no binding” in experiment [3], “binds” in experiment [4] and “binds” in experiment [5].

Turning to “α importin KPNA4 (from UniProt O00629 1-521)”, the binding result in experiment [2] is listed as “no binding”; in experiment [3] it was “no binding”; in experiment [4], “binds”; in experiment [5], “binds”.

As to pUL31 (from UniProt P10215 1-306), the binding result in experiment [3] and in experiment [5] was “binds” throughout.

(Values after PMC8402719.)
